Data: PubChem BioAssay AID602310 (National Center for Advancing Translational Sciences (NCATS), 2012)
Among all 410,000 compounds or so, about 310 (0.076%) were called active. The inconclusive results got no clear call from the source; some entries with a clear call stand among them for comparison. The call rests on the fitted dose curve; in most records, active means well fitted curve in the direction sought with a large enough effect; inconclusive means small, poorly fitted or top-dose-only effect; inactive means flat fitted curve, though single readings scatter. A potency beside an inconclusive call is a rough fit, not a confirmed value.

target: DNA dC->dU-editing enzyme APOBEC-3G (Homo sapiens) (UniProt Q9HC16); assay: qHTS for Inhibitors of Vif-A3G Interactions: qHTS; conditions: HeLa A3G-eYFP + Vif (tagged APOBEC3G with the HIV-1 protein that degrades it), YFP fluorescence, overnight; series mostly up to 46.1 µM; activity, negative = active: at the top concentration; further: nearly all actives have a fitted effect of over 60% in size;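 on activity, negative = active: hits raise eYFP signal because A3G escapes Vif-driven loss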
Sequence of UniProt Q9HC16 (Q9HC16 whole entry, looked up): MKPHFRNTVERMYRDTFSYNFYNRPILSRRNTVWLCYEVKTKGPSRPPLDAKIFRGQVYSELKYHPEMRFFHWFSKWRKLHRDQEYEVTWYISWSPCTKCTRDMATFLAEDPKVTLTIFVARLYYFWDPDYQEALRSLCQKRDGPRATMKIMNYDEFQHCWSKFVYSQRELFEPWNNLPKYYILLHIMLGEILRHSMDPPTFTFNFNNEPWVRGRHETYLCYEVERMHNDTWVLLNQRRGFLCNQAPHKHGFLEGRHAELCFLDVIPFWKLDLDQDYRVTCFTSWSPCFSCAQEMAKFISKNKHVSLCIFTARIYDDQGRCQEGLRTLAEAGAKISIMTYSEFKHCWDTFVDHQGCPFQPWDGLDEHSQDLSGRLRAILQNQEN
Procedure, shortened: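 HeLa cells stably expressing Vif and C-terminally eYFP-tagged A3G, seeded overnight at 37 deg C, then exposed to compound by pintool overnight at 37 deg C. Rise in yellow fluorescence (Ex 488/Em 500-530, Acumen) marks blocked Vif-driven A3G degradation.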
On the % scale 0 is the no-effect control and ±100 the full control effect; potency means the concentration at half of the fitted maximal effect; tags describe the fitted curve by direction and shape.

SMILES | Potency | activity, negative = active
COc1cc(OC)c2c(-c3cccc(-c4cccc(N)c4)c3)cc(=O)oc2c1 | inconclusive: 1.41 µM [inhibitor, full curve, poor fit] | 
C=C1/C=C(\C)C(C)(O)CC(O)CC(=O)C(O)C(O)C(C)CC(C)OC(=O)/C(C)=C/CC/C=C/C(OC)C(O)CC(C)C1 (centres undefined) |  | inactive: -19.7%
COc1cc(OC)c(C2=NOC(C(=O)NCc3cccnc3)C2)cc1Cl (centres undefined) | inconclusive: 10 µM [inhibitor, partial curve, poor fit] | 
Cc1ccc(OCC(=O)N/N=C/c2ccccc2)c([N+](=O)[O-])c1 |  | inactive: 1.87%
Cc1ccc(-c2cc(-c3ccc(F)cc3)n[nH]2)c(O)c1 |  | inactive: -9.11%
CCOC(=O)C(=NC1CCCCC1)NNc1cccc(C(F)(F)F)c1 |  | inactive: -4.9%
COc1ccccc1NC(=O)CSC1=Nc2ccccc2N=C(c2ccc(F)cc2)C1 |  | inactive: 0.109%
CCOc1ccc2c(c1)C(C)=CC(C)(C)N2S(=O)(=O)c1ccc(C)cc1 | inconclusive: 0.562 µM [inhibitor, full curve, poor fit] | 
CC[n+]1ccccc1/C=C1\Sc2ccc(C)cc2N1C | inconclusive: 22.4 µM [inhibitor, single point] | 
CC(=O)Nc1ccc(C2=CC(=O)C[C@H](c3ccc(Cl)cc3)C2)cc1 | inconclusive: 15.8 µM [inhibitor, single point] | 
NC(=O)COC(=O)/C=C/c1ccc2ccccc2n1 | inconclusive: 35.5 µM [inhibitor, single point] | 
N#CC1c2ccccc2-c2ccccc2N1C(=O)c1ccccc1 (centres undefined) | inconclusive: 1.78 µM [inhibitor, full curve, poor fit] | 
CCCCC(=O)OC1=C(C(=O)c2ccccc2)N(C)S(=O)(=O)c2ccccc21 | inconclusive: 35.5 µM [inhibitor, single point] | 
COc1ccc(CNc2ncnc(N)n2)cc1 | inconclusive: 35.5 µM [inhibitor, single point] | 
COc1ccc(N(C)S(=O)(=O)c2cccc3cccnc23)c(OC)c1 | inconclusive: 7.08 µM [inhibitor, full curve] | 
O=C(Oc1oc(-c2ccco2)nc1C=Nc1ccccc1)c1ccoc1 |  | inactive: -0.0922%
FC(F)(F)c1cccc(CNC2CCN(Cc3ccccc3)CC2)c1 |  | inactive: 3.54%
N#C/C(=C\c1cccs1)C(=O)NCc1cccnc1 |  | inactive: -0.657%
O=C(Nc1cccc(-c2nc3ccccc3o2)c1)c1cccc(Br)c1 | inconclusive: 35.5 µM [inhibitor, single point] | 
COC(=O)CN1C(=S)N(c2ccc(OC)cc2)C(=O)/C1=C/c1ccc(N2CCOCC2)cc1 | inconclusive: 17.8 µM [inhibitor, single point] | 
COc1ccccc1CNCc1ccc(C)cc1 |  | inactive: 1.99%
O=C(N/N=C/c1ccc([N+](=O)[O-])o1)c1cc(-c2ccc(-c3ccccc3)cc2)nc2ccccc12 | inconclusive: 1.41 µM [inhibitor, full curve, poor fit] | 

SMILES | Potency | activity, negative = active
Cc1cccc(-c2nc(CS(=O)CC(=O)NC3CCCC(C)C3C)c(C)o2)c1 (centres undefined) |  | inactive: -3.44%
N/C(Cc1ccc([N+](=O)[O-])cc1)=N\OC(=O)c1cccc(Br)c1 |  | inactive: 0.0461%
COc1cc(C(=O)NCC(=O)N/N=C/c2c(C)[nH]c3ccccc23)cc(OC)c1OC | inconclusive: 35.5 µM [inhibitor, partial curve, poor fit] | 
COc1cc(-c2cc(NC=O)c3ncc(-c4ccc(F)cc4)n3c2)cc(OC)c1OC | inconclusive: 17.8 µM [inhibitor, single point] | 
O=C(O)/C=C/c1ccccc1Oc1ccc(Cl)cc1Cl | inconclusive: 20 µM [inhibitor, partial curve, poor fit] | 
CCOC(=O)C1=C(C)NC(C)=C(C(=O)OCC)C1c1ccc(O)cc1 |  | inactive: -7.64%
O=C(/C=C/c1ccccc1)Oc1ccc(C(=S)N2CCOCC2)cc1 |  | inactive: -0.928%
N#Cc1ncc(Cc2ccccc2)nc1C#N | inconclusive: 25.1 µM [inhibitor, single point] | 
CC(=O)Oc1ccc(OC(C)=O)c(SCCCCCN2CCOCC2)c1 | inconclusive: 35.5 µM [inhibitor, single point] | 
CCOc1cc(CNCCCN2CCOCC2)cc(Br)c1OCc1ccccc1Cl | inconclusive: 22.4 µM [inhibitor, single point] | 
Cc1ccccc1NS(=O)(=O)c1ccc2c(c1)n(C)c(=O)n2C |  | inactive: -15.4%
Cc1[nH]c2ccccc2c1/C=C/c1nccc2ccccc12 | inconclusive: 2.82 µM [inhibitor, full curve, poor fit] | 
C=C1C(=O)[C@]23C[C@H]1CCC2[C@@]1(C)C(C[C@@H]3O)[C@](C)(C(=O)OC)CC[C@@H]1OC(C)=O (some centres undefined) |  | inactive: -17.1%
Cc1ccc2[nH]cc(/C=C/c3cc[n+](C)cc3)c2c1 | inconclusive: 1.58 µM [inhibitor, full curve, poor fit] | 
CN(CCC#N)c1ccc(/C=C/c2ccnc3ccccc23)cc1 | inconclusive: 12.6 µM [inhibitor, single point] | 
COC(CNC(=O)c1ccc2c(c1)nc(C)n2-c1cccc(C)c1)OC |  | inactive: -8.81%
COc1ccc(/C=N/NC(=O)c2cccc3ccccc23)c(OC)c1OC | inconclusive: 10 µM [inhibitor, partial curve] | 
COc1c(Cl)cc(Cl)cc1/C=C/C(=O)c1ccc(NC(=O)c2cccs2)cc1 | inconclusive: 10 µM [inhibitor, partial curve, poor fit] | 
CCOc1ccc(OCCCC(=O)Nc2cc(S(=O)(=O)N3CCOCC3)ccc2N2CCOCC2)cc1 |  | inactive: -4.28%
COc1cc(C(=O)N2CCN(c3cc(Cl)ccc3Cl)CC2)cc(OC)c1OC | inconclusive: 0.891 µM [inhibitor, full curve, poor fit] | 
COc1cccc2c1C(CO)N1C(C#N)C3CC(C(=O)O)C(C1C2)N3C (centres undefined) |  | inactive: -11.8%
C#CCOCCOCCOCCNc1nc(N2CCN(C(=O)CCCCCCCCCCNC(=O)Cn3cc(C[C@@H](C)O)nn3)CC2)nc(N2CCN(C(=O)CCCCCCCCCCNC(=O)[C@@H](CCSC)n3cc(CCO)nn3)CC2)n1 | inconclusive: 7.08 µM [inhibitor, partial curve, poor fit] | 
